This is one part of a sample in which the strongest signals are shown more often than they occur.
Key:
Test in all cases: glycan array binding signal (z-score within array); higher = stronger binding
Conditions in all cases: glycan notation: IUPAC condensed, linker removed
[1] = system: Fuc(a1-2)[Gal(a1-3)]Gal(b1-4)GlcNAc(b1-3)[Fuc(a1-2)[Gal(a1-3)]Gal(b1-4)GlcNAc(b1-6)]GalNAc
Outline: (§1)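 Glycan array binding is given as a within-array Z-score, which can be read as non-binding when negative. The arrays, 3228 of them, came from the Consortium for Functional Glycomics database and were retained only where the protein sequence was available. Z-scores were averaged across arrays of the same protein sequence at different concentrations or buffers and across linkers.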

[2] = system: Fuc(a1-2)[GalNAc(a1-3)]Gal(b1-3)GlcNAc(b1-2)Man(a1-3)[Fuc(a1-2)[GalNAc(a1-3)]Gal(b1-3)GlcNAc(b1-2)Man(a1-6)]Man(b1-4)GlcNAc(b1-4)[Fuc(a1-6)]GlcNAc
Outline: as §1

[3] = system: Fuc(a1-2)[Gal(a1-3)]Gal(b1-4)GlcNAc(b1-6)GalNAc
Outline: as §1

[4] = system: Fuc(a1-2)[Gal(a1-3)]Gal(b1-4)[Fuc(a1-3)]GlcNAc(b1-3)GalNAc
Outline: as §1

[5] = system: Fuc(a1-2)[Gal(a1-3)]Gal(b1-4)GlcNAc
Outline: as §1

[6] = system: Fuc(a1-2)[GalNAc(a1-3)]Gal(b1-3)GalNAc(b1-3)Gal(a1-4)Gal(b1-4)Glc
Outline: as §1

[7] = system: Fuc(a1-2)[Gal(a1-3)]Gal(b1-4)Glc
Outline: as §1

[8] = system: Fuc(a1-2)[Gal(a1-3)]Gal(b1-4)[Fuc(a1-3)]GlcNAc
Outline: as §1

[9] = system: Fuc(a1-2)[GalNAc(a1-3)]Gal(b1-3)GlcNAc(b1-2)Man(a1-3)[Fuc(a1-2)[GalNAc(a1-3)]Gal(b1-3)GlcNAc(b1-2)Man(a1-6)]Man(b1-4)GlcNAc(b1-4)GlcNAc
Outline: as §1

Thrombomodulin Extracellular (Homo sapiens) (chain not printed)
glycan array binding signal (z-score) [1]: 3.27
glycan array binding signal (z-score) [2]: -0.105

FGF2 (chain not printed)
glycan array binding signal (z-score) [3]: 1.36
glycan array binding signal (z-score) [4]: 0.734

Gal 3 (Homo sapiens) (chain not printed)
glycan array binding signal (z-score) [5]: 4.77
glycan array binding signal (z-score) [6]: -0.346

Gal 8-short (Homo sapiens) (chain not printed)
glycan array binding signal (z-score) [5]: 1.6

Gal 8 long (Homo sapiens) (chain not printed)
glycan array binding signal (z-score) [7]: 2.99

Galectin-8 C-terminal CRD (Homo sapiens) (chain not printed)
glycan array binding signal (z-score) [7]: 3.08

NCAM1 (Homo sapiens) (chain not printed)
glycan array binding signal (z-score) [4]: 3.59
glycan array binding signal (z-score) [8]: 4.51

M-Ficolin Y271F (Homo sapiens) (chain not printed)
glycan array binding signal (z-score) [8]: 0.096

H-Ficolin (Homo sapiens) (chain not printed)
glycan array binding signal (z-score) [9]: -0.437

M-Ficolin G221F A256V (Homo sapiens) (chain not printed)
glycan array binding signal (z-score) [9]: -0.355

Reference: the supplement of paper PMC8728848
